# Experimental data published in the supplement of paper PMC8728848.
# The other results are listed elsewhere or left out.
# B1: LYVE-1 (Homo sapiens), Q9Y5Y7 (protein)
# chain: MARCFSLVLLLTSIWTTRLLVQGSLRAEELSIQVSCRIMGITLVSKKANQQLNFTEAKEACRLLGLSLAGKDQVETALKASFETCSYGWVGDGFVVISRISPNPKCGKNGVGVLIWKVPVSRQFAAYCYNSSDTWTNSCIPEIITTKDPIFNTQTATQTTEFIVSDSTYSVASPYSTIPAPTTTPPAPASTSIPRRKKLICVTEVFMETSTMSTETEPFVENKAAFKNEAAGDPEVKFNWYVDGVEVHNAKPREEQYNSTYRVVSLVTVLHQDWLNGKEYKCKVSNKALPAPIEKTISKAKGQPREPQVYTLPPSRDELTKNQVSLTCLVKGFYPSDIAVEWESNGQPENNYKTTPPVLDSDGSFFLYSKLTVDKSRWQQGNVFSCSVMHEALHNHYTQRSLSLSPGK
# Assays:
# Experiment in all cases: glycan array binding signal (z-score within array); higher = stronger binding
# Conditions in all cases: glycan notation: IUPAC condensed, linker removed
# [1] = biological target: Gal(b1-3)[Fuc(a1-4)]GlcNAc(b1-3)Gal(b1-4)[Fuc(a1-3)]GlcNAc
# In short: (§1)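 The binding signal is a Z-score computed within each array. Data were drawn from 3228 arrays in the Consortium for Functional Glycomics database, restricted to those with a known protein sequence. Scores were averaged over arrays of the same protein sequence at different concentrations or buffers, and over linkers, and negative values can be taken as non-binding.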
# [2] = biological target: Gal(b1-3)[GlcNAc(b1-6)]GalNAc
# In short: as §1
# [3] = biological target: Gal(b1-3)[Neu5Ac(a2-6)]GalNAc
# In short: as §1
# [4] = biological target: Gal(b1-3)[Neu5Ac(a2-6)]GlcNAc(b1-6)Gal(b1-4)Glc
# In short: as §1
# [5] = biological target: Gal(b1-3)[Neu5Ac(b2-6)]GalNAc
# In short: as §1
# [6] = biological target: Gal(b1-4)GalNAc(a1-3)[Fuc(a1-2)]Gal(b1-4)GlcNAc
# In short: as §1
# [7] = biological target: Gal(b1-4)GalNAc(b1-3)[Fuc(a1-2)]Gal(b1-4)GlcNAc
# In short: as §1
# [8] = biological target: Gal(b1-4)Glc
# In short: as §1
# [9] = biological target: Gal(b1-4)Glc6S
# In short: as §1
# [10] = biological target: Gal(b1-4)GlcNAc
# In short: as §1
# [11] = biological target: Gal(b1-4)GlcNAc(a1-6)Gal(b1-4)GlcNAc
# In short: as §1
# [12] = biological target: Gal(b1-4)GlcNAc(b1-2)Man(a1-3)[Gal(b1-4)GlcNAc(b1-2)Man(a1-6)]Man(b1-4)GlcNAc(b1-4)GlcNAc
# In short: as §1
# [13] = biological target: Gal(b1-4)GlcNAc(b1-3)Gal(b1-3)GlcNAc
# In short: as §1
# [14] = biological target: Gal(b1-4)GlcNAc(b1-3)Gal(b1-4)Glc
# In short: as §1
# [15] = biological target: Gal(b1-4)GlcNAc(b1-3)Gal(b1-4)GlcNAc
# In short: as §1
# [16] = biological target: Gal(b1-4)GlcNAc(b1-3)Gal(b1-4)GlcNAc(b1-3)Gal(b1-4)GlcNAc
# In short: as §1
# [17] = biological target: Gal(b1-4)GlcNAc(b1-3)Gal(b1-4)[Fuc(a1-3)]GlcNAc(b1-3)Gal(b1-4)[Fuc(a1-3)]GlcNAc
# In short: as §1
# [18] = biological target: Gal(b1-4)GlcNAc(b1-3)GalNAc
# In short: as §1
# [19] = biological target: Gal(b1-4)GlcNAc(b1-3)[Gal(b1-4)GlcNAc(b1-6)]Gal(b1-4)GlcNAc
# In short: as §1
# [20] = biological target: Gal(b1-4)GlcNAc(b1-3)[GlcNAc(b1-6)]Gal(b1-4)GlcNAc
# In short: as §1
# [21] = biological target: Gal(b1-4)GlcNAc(b1-6)Gal(b1-4)GlcNAc
# In short: as §1
# [22] = biological target: Gal(b1-4)GlcNAc(b1-6)Gal(b1-4)GlcNAc(b1-6)GalNAc
# In short: as §1
# [23] = biological target: Gal(b1-4)GlcNAc(b1-6)GalNAc
# In short: as §1
# [24] = biological target: Gal(b1-4)GlcNAc(b1-6)[Gal(b1-3)]GalNAc
# In short: as §1
# [25] = biological target: Gal3S(b1-3)GalNAc
# In short: as §1
# [26] = biological target: Gal3S(b1-3)GlcNAc
# In short: as §1
# [27] = biological target: Gal3S(b1-3)[Fuc(a1-4)]GlcNAc
# In short: as §1
# [28] = biological target: Gal3S(b1-4)Glc
# In short: as §1
# [29] = biological target: Gal3S(b1-4)Glc6S
# In short: as §1
# [30] = biological target: Gal3S(b1-4)GlcNAc
# In short: as §1
# [31] = biological target: Gal3S(b1-4)GlcNAc6S
# In short: as §1
# [32] = biological target: Gal3S(b1-4)[Fuc(a1-3)]Glc
# In short: as §1
# [33] = biological target: Gal3S4S(b1-4)GlcNAc
# In short: as §1
# [34] = biological target: Gal3S6S(b1-4)GlcNAc
# In short: as §1
# [35] = biological target: Gal3S6S(b1-4)GlcNAc6S
# In short: as §1
# [36] = biological target: Gal4S(b1-4)GlcNAc
# In short: as §1
# [37] = biological target: Gal4S6S(b1-4)GlcNAc
# In short: as §1
# [38] = biological target: Gal6S(b1-4)Glc
# In short: as §1
# [39] = biological target: Gal6S(b1-4)Glc6S
# In short: as §1
# [40] = biological target: Gal6S(b1-4)GlcNAc
# In short: as §1
# [41] = biological target: Gal6S(b1-4)GlcNAc6S
# In short: as §1
# [42] = biological target: GalNAc(a1-3)Gal
# In short: as §1
# [43] = biological target: GalNAc(a1-3)GalNAc
# In short: as §1
# [44] = biological target: GalNAc(b1-3)Gal
# In short: as §1
# [45] = biological target: GalNAc(b1-3)Gal(a1-4)Gal(b1-4)GlcNAc
# In short: as §1
binder,measurement,setting,value
B1,glycan array binding signal (z-score),[1],0.219
same,glycan array binding signal (z-score),[2],0.212
same,glycan array binding signal (z-score),[3],-0.597
same,glycan array binding signal (z-score),[4],0.137
same,glycan array binding signal (z-score),[5],0.269
same,glycan array binding signal (z-score),[6],-0.338
same,glycan array binding signal (z-score),[7],-0.293
same,glycan array binding signal (z-score),[8],-0.228
same,glycan array binding signal (z-score),[9],-0.12
same,glycan array binding signal (z-score),[10],0.105
same,glycan array binding signal (z-score),[11],-0.497
same,glycan array binding signal (z-score),[12],-0.235
same,glycan array binding signal (z-score),[13],-0.512
same,glycan array binding signal (z-score),[14],-0.489
same,glycan array binding signal (z-score),[15],-0.92
same,glycan array binding signal (z-score),[16],0.54
same,glycan array binding signal (z-score),[17],0.481
same,glycan array binding signal (z-score),[18],-0.411
same,glycan array binding signal (z-score),[19],0.199
same,glycan array binding signal (z-score),[20],-0.385
same,glycan array binding signal (z-score),[21],0.014
same,glycan array binding signal (z-score),[22],0.286
same,glycan array binding signal (z-score),[23],1.13
same,glycan array binding signal (z-score),[24],-0.266
same,glycan array binding signal (z-score),[25],-0.36
same,glycan array binding signal (z-score),[26],-0.22
same,glycan array binding signal (z-score),[27],-0.393
same,glycan array binding signal (z-score),[28],-0.939
same,glycan array binding signal (z-score),[29],0.229
same,glycan array binding signal (z-score),[30],-0.036
same,glycan array binding signal (z-score),[31],-0.695
same,glycan array binding signal (z-score),[32],-0.34
same,glycan array binding signal (z-score),[33],0.073
same,glycan array binding signal (z-score),[34],-0.372
same,glycan array binding signal (z-score),[35],-0.298
same,glycan array binding signal (z-score),[36],-0.517
same,glycan array binding signal (z-score),[37],-0.679
same,glycan array binding signal (z-score),[38],0.018
same,glycan array binding signal (z-score),[39],-0.632
same,glycan array binding signal (z-score),[40],-0.513
same,glycan array binding signal (z-score),[41],0.105
same,glycan array binding signal (z-score),[42],-0.363
same,glycan array binding signal (z-score),[43],-0.803
same,glycan array binding signal (z-score),[44],-0.572
same,glycan array binding signal (z-score),[45],-0.532
